The record followed here is paper PMC4336329 (PLoS ONE, 2015).

Out of some 310,000 compounds screened, about 14,000 (4.5%) showed an effect of 50% or more. The effect is printed as a negative number. The list shows a part of the results.
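Note: peak tail current of the secondary pulse compared with the same well before compound.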

Chain of human ether-à-go-go-related gene (hERG) potassium channel (Q12809 whole entry, looked up): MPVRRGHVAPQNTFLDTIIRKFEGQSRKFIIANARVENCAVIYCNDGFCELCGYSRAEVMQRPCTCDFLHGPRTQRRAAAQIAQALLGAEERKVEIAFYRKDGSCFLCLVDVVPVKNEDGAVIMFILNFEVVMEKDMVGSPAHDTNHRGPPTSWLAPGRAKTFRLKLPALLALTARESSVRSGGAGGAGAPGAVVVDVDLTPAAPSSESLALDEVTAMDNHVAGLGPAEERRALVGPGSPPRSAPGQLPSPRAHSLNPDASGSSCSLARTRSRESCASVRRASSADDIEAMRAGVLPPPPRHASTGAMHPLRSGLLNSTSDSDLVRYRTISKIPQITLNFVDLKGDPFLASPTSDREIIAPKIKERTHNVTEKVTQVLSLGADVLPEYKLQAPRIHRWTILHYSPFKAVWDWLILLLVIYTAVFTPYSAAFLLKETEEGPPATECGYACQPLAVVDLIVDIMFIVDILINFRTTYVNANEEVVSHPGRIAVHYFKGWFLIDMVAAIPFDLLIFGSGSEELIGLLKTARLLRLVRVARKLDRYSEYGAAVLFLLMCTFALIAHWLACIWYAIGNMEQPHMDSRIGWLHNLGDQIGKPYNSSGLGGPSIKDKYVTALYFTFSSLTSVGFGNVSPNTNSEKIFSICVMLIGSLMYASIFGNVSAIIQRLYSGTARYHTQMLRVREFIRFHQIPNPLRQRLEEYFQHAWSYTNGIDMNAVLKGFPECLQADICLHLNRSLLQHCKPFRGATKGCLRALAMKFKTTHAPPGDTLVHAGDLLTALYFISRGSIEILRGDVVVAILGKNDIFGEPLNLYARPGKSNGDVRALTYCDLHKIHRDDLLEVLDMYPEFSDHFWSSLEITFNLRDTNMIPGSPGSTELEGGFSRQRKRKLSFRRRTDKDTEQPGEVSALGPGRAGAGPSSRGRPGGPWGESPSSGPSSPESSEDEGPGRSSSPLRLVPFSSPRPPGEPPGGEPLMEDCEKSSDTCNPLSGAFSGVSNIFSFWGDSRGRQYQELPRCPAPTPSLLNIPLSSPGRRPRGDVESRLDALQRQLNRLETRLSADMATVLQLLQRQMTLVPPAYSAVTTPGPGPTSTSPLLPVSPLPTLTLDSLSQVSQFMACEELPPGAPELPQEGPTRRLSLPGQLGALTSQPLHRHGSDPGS

This assay has as its target human ether-à-go-go-related gene (hERG) potassium channel (human, UniProt Q12809). Put plainly: primary screen, population patch clamp on CHO cells stably expressing hERG. Here is the method:
Briefly, Chinese hamster ovary (CHO) cells stably expressing the hERG channel were dislodged from tissue culture flasks and dispensed into PPC plates. […] During the recording, background leak currents were estimated by a 100 ms step to -80 mV from an initial holding potential of -70 mV and subtracted from the subsequent current measurement. The campaign was conducted in two phases using slight differences in recording protocol. In the first phase, the initial voltage pulse used a 100 ms step to -30 mV from a holding potential of -70 mV, a 2 s conditioning step to +25 mV, and a 2 s test step to -30 mV. During the second phase of the screen, the potential during the conditioning step was raised to +45 mV. In both phases of the campaign, a secondary voltage pulse was applied using the same parameters as the second phase initial pulse. The initial and secondary pulses were applied in the absence of compound, and upon application of 1 μM and 10 μM test concentrations. […]
On to `C=CCN1C(=O)N(c2ccccc2)C(=O)C1CC(=O)Nc1ccc(OC)cc1` (centres unmarked), for which the “hERG current change (%, negative = inhibition) at 10uM” value turned out to be 15.6%. Consider `Cc1sc(NC(=S)NC(=O)c2ccc(C(C)(C)C)cc2)c(C#N)c1C`, for which the “hERG current change (%, negative = inhibition) at 10uM” value is on record as 6.48%. For `CCn1c(SCC(=O)Nc2nccs2)nnc1-c1ccncc1` the value was 10.8%; for `Cc1cccc(C(=O)N2CCC(c3nc(-c4ccc(S(=O)(=O)N5CCOCC5)cc4)no3)CC2)c1`, -3.33%.

Turning to `CCN1C(=O)/C(=C/N(C)c2ccccc2)OC1=S`, the “hERG current change (%, negative = inhibition) at 10uM” value is reported as -8.25%. The same measure for `NC(=S)c1c(Cl)cc(C(F)(F)F)cc1Cl`: 9.27%; for `CCCN(CCC)C(=O)CSc1nc2n[nH]c(C)c2c(=N)n1-c1ccc(OCC)cc1`: 2%; for `CC(C)(C)CC(=O)Nc1cc2c3c(c1)CC(=O)N3CCC2`: 14.6%. As to `O=C(NCc1ccc2c(c1)OCO2)c1cccc(F)c1`, the “hERG current change (%, negative = inhibition) at 10uM” value is listed as 7.11%. For `S=c1[nH]nc(-c2ccccc2Br)n1Cc1ccccc1` the value was 13.4%; for `O=C(NCc1cccs1)C1CCCCC1`, -3.44%. The same measure for `OCCOCCn1c2ccccc2c2ccccc21`: -7.23%.

In the case of `Cn1c(=O)c2c(nc(NCc3ccco3)n2Cc2ccccc2Cl)n(C)c1=O`, the “hERG current change (%, negative = inhibition) at 10uM” value is listed as 13.2%.

Turning to `Cc1ccc2nc(-c3ccccc3)c(-c3ccccc3)nc2c1`, the “hERG current change (%, negative = inhibition) at 10uM” value was determined as 5.97%.

Turning to `COc1nc(NCCO)nc(Nc2ccc([N+](=O)[O-])cc2)n1`, the “hERG current change (%, negative = inhibition) at 10uM” value is given as -40.2%.

On to `CC(C)Oc1ccc(C(=O)Nc2nnc(C3=COCCO3)o2)cc1`, for which the “hERG current change (%, negative = inhibition) at 10uM” value is -21.6%. For `CCn1ncc(S(=O)(=O)NCc2ccccc2Cl)c1C` the value was 5.66%; for `Cc1cc(Br)ccc1SCC(=O)OC/C(O)=C(\C#N)c1nc2ccccc2[nH]1`, 2.31%; for `CC(NC(=O)CN(Cc1ccccc1)S(=O)(=O)c1ccccc1)c1cccnc1` (centres unmarked), -15.8%. The same measure for `CN1N=C(C(=O)N2CCN(c3ccc([N+](=O)[O-])cc3)CC2)CCC1=O`: -73%. The same measure for `COCc1ccc(-c2ccc3c(c2)c(C#Cc2ccsc2)c(-c2cc(OC)cc(OC)c2)n3C)cc1`: 6.72%; for `CC1(c2ccccc2)NC(=O)N(CC(=O)Nc2ccc(N3CCOCC3)cc2N2CCOCC2)C1=O` (centres unmarked): 6.74%. On to `O=C(CN1C(=O)NC2(CCc3ccccc32)C1=O)Nc1ccc(Br)cc1F` (centres unmarked), for which the “hERG current change (%, negative = inhibition) at 10uM” value is listed as -11.3%. The same measure for `COCC(C)OC(=O)c1c(N)n(CC(C)C)c2nc3ccccc3nc12` (centres unmarked): -67.8%; for `CC1CCCN(C(=S)NC2CCCC2)C1` (centres unmarked): 18.3%; for `CCOC(=O)c1c(C)[nH]c(C)c1S(=O)(=O)NCCCN1CCOCC1`: 5.1%. With `CCCc1cc(=O)n2[nH]c(-c3ccco3)nc2n1`, the “hERG current change (%, negative = inhibition) at 10uM” value is given as 12.8%.

Take `CC(C)C(=O)Nc1cccc(C(=O)NCc2ccc3c(c2)OCO3)c1`: the “hERG current change (%, negative = inhibition) at 10uM” value is reported as -14.8%. For `CC(=O)c1c(C)[nH]c(C(=O)CSc2ccc(F)cc2)c1C` the value was 2.62%; for `Oc1ccccc1-c1cc(-c2ccccc2)no1`, 13.9%; for `CCOc1cc(/C=C2/C(=N)N3C(=NC2=O)SN=C3S(=O)(=O)C(C)C)ccc1OC(=O)c1ccco1`, 3.02%.

As to `COC(CN(C)C(=O)c1cn(C)c2ccc(S(=O)(=O)N(C)C3CCCCC3)cc2c1=O)OC`, the “hERG current change (%, negative = inhibition) at 10uM” value is given as 10.3%. For `CCOC(=O)CN1C(=O)c2ccccc2C1=O` the value was 14.2%; for `COc1ccc(N2CCN(S(=O)(=O)c3ccc(Cl)c(C(F)(F)F)c3)CC2)cc1`, 0.858%; for `CCOC(=O)c1csc(NNC=O)n1`, 6.73%. For `Cc1ccccc1NC(=O)c1c(C)nn(-c2ccccc2)c1Cl` the value was -9.14%; for `O=C(O)c1cc(S(=O)(=O)N2CCCCC2)ccc1Cl`, -2.16%; for `O=C(c1ccc(Cl)cc1)C1CCCN(Cc2ccc3nonc3c2)C1` (centres unmarked), -34.9%. The same measure for `Cc1ccc(C(=O)n2cnnc2N)cc1C`: -0.0756%. As for `O=C(CCN1C(=O)S/C(=C/c2ccccc2)C1=O)Nc1ccc(C(=O)O)c(O)c1`, the “hERG current change (%, negative = inhibition) at 10uM” value is recorded as 22.7%. As for `c1ccc(Oc2cc(-c3ccccc3)ncn2)cc1`, the “hERG current change (%, negative = inhibition) at 10uM” value is reported as -9.9%. The same measure for `Cc1ccc2cc(CN(CC3CCCO3)C(=S)Nc3ccccc3)c(=O)[nH]c2c1` (centres unmarked): -37%; for `Cc1ccccc1Nc1nc(Cl)c(C=O)s1`: -8.73%. The same measure for `COc1ccc(N2CCN(C(=O)CCC(=O)N3Cc4ccccc4Oc4ncccc43)CC2)cc1`: -48.4%; for `CC(C)(CNS(C)(=O)=O)SCc1ccc(Cl)cc1`: 0.17%. The same measure for `Cc1csc2c(=O)n(CCO)c(=O)[nH]c12`: 12.3%. As to `Cc1cc(C(=O)c2ccccc2)c(NC(=O)CCl)s1`, the “hERG current change (%, negative = inhibition) at 10uM” value came to 3.14%.

In the case of `Cc1cccc(-c2noc(CN(C(=O)C(c3ccccc3)c3ccccc3)C(C)C)n2)c1`, the “hERG current change (%, negative = inhibition) at 10uM” value was -7.56%. For `CCOc1cc(S(=O)(=O)N2CCN(Cc3ccccc3)CC2)ccc1Br` the value was -10.1%; for `Cc1ccccc1CNC(=O)C1CCN(c2nnc(N3CCCC3=O)s2)CC1`, 19.3%.

Regarding `CCOC(=O)CC(=O)Nc1nnc(CC(C)C)s1`, the “hERG current change (%, negative = inhibition) at 10uM” value is recorded as -1.6%. Consider `O=C1c2ccccc2C(=O)N1OCc1ccc(Cl)cc1`, for which the “hERG current change (%, negative = inhibition) at 10uM” value amounted to 7.45%. The same measure for `Cc1ccc(-n2c(-c3ccco3)nc3c(cnn3-c3ccc(C)cc3)c2=O)cc1`: 14.2%; for `CN1/C(=C\C(=O)Nc2ccc(Cl)cc2)C(C)(C)c2ccccc21`: 21.2%; for `CCOc1ccc(NC(C(=O)Nc2cccc(C(C)=O)c2)c2ccccc2)cc1` (centres unmarked): -49.7%. For `CCOc1ccc(NC(=O)c2ccccc2OC)cc1` the value was 15.8%; for `COc1cc2cc(C#N)c(SCC(=O)N3CCOCC3)nc2cc1OC`, -0.169%. For the compound `O=C(Nc1ccccc1)C1CC(=O)N(c2ccc3c4c(cccc24)CC3)C1` (centres unmarked), the “hERG current change (%, negative = inhibition) at 10uM” value came to 2.77%. For `CCC(C(=O)NCCCN1CC(C)CC(C)C1)n1ncn2c(cc3occc32)c1=O` (centres unmarked) the value was -11.3%; for `Nc1c(C(=O)NCc2ccc(F)cc2)c2nc3ccccc3nc2n1CCCN1CCOCC1`, 0.0395%.

`Cc1ccc(=O)n(-c2ccccc2)c1`: the “hERG current change (%, negative = inhibition) at 10uM” value is recorded as -0.456%. For `COc1ccc2oc(C(=O)OCC(=O)N(C)C3CCS(=O)(=O)C3)c(C)c2c1` (centres unmarked) the value was -16.2%; for `O=C1C2C3C=CC(C3)C2C(=O)N1Nc1ccc([N+](=O)[O-])cc1[N+](=O)[O-]` (centres unmarked), 3.34%; for `Cc1ccnc(NC(=O)c2ccc(Cl)c([N+](=O)[O-])c2)c1`, 3.55%. The same measure for `COc1ccc(C2c3[nH]c4ccccc4c3CCN2Cc2cccn2-c2ncccn2)cc1C` (centres unmarked): -52%. The same measure for `Cn1ccnc1SCC(=O)c1cccc(C(F)(F)F)c1`: -27.8%. Consider `COc1ccc(CCNC(=S)Nc2cc(C)cc(C)c2)cc1`, for which the “hERG current change (%, negative = inhibition) at 10uM” value is on record as 1.9%. Take `Cc1ccsc1/C=N/NC(=O)c1ccc2c(c1)OCCO2`: the “hERG current change (%, negative = inhibition) at 10uM” value amounted to 8.41%.

In the case of `O=C(NNC(=O)c1nc(Cl)ccc1Cl)c1ccc(F)cc1`, the “hERG current change (%, negative = inhibition) at 10uM” value was -10.4%. On to `CNC(=S)Nc1ccc(OC)c(OC)c1`, for which the “hERG current change (%, negative = inhibition) at 10uM” value is reported as 3.55%.

On to `CC1(C)CC(=O)C(C2=NC3(CCCCC3)Cc3ccccc32)=C(O)C1`, for which the “hERG current change (%, negative = inhibition) at 10uM” value is 10.4%. For `O=C(N[C@@H](Cc1ccccc1)C(=O)OCc1ccccc1)c1nc[nH]c1C(=O)N[C@@H](Cc1ccccc1)C(=O)OCc1ccccc1` the value was 8.2%. For `O=C(NCc1ccc(Cl)cc1)C(=O)NCC1OCCN1C(=O)c1ccc(Cl)cc1` (centres unmarked) the value was -4.88%; for `OCC[C@@H]1C[C@H](O)[C@@H](O)[C@]2(OCCc3ccccc32)O1`, 17.5%; for `N#C/C(=N\[O-])c1nc(-c2ccccc2)cs1.[K+]`, -8.69%.

Consider `O=C(/C=C\c1cn(-c2ccccc2)nc1-c1ccc2c(c1)OCCO2)N1CCOCC1`, for which the “hERG current change (%, negative = inhibition) at 10uM” value is on record as 2.39%. For the compound `CCOc1ccc(NC(=O)c2ccc(CNc3c(N4CCCC4)c(=O)c3=O)cc2)cc1`, the “hERG current change (%, negative = inhibition) at 10uM” value amounted to 5.86%. Regarding `Cc1ccccc1S(=O)(=O)NCc1cccnc1`, the “hERG current change (%, negative = inhibition) at 10uM” value is on record as 5.17%. The same measure for `CN1CCCC(OC(=O)c2cccc(S(=O)(=O)N3CCCCCC3)c2)C1.Cl` (centres unmarked): -28.4%. For the compound `Cc1ccccc1C(=O)Nc1ccc(O)c2c(=O)cc(-c3ccccc3Cl)oc12`, the “hERG current change (%, negative = inhibition) at 10uM” value was -9.06%. For `O=C1C2C(C(=O)N1/N=C/c1ccc([N+](=O)[O-])o1)C1C=CC2C12CC2` (centres unmarked) the value was -0.281%; for `CCc1ccccc1NC1=NCC(=O)N1C1CCCC1.Cl`, 12.8%. For `CCCCNC(=O)c1ccc2c(c1)N(CC)C(=O)c1ccccc1S2(=O)=O` the value was -16.4%; for `COc1ccc(C(=O)OCC(=O)Nc2cc(C)c(C)cc2[N+](=O)[O-])cc1`, -0.544%. The same measure for `O=C(CCCCCN1C(=O)c2cccc3cccc(c23)C1=O)NCc1cccnc1`: 13.1%; for `COc1ccc(S(=O)(=O)N2CCN(Cc3ccc(OC)c(OC)c3)CC2)cc1`: -8.52%; for `CC(C)c1ccc2[nH]c3nc(SCC(=O)NC4CC4)nnc3c2c1`: -20.6%. In the case of `CCOc1ccc(C2C(=O)N(C3CCCCC3)CC(=O)N2CC2CCCO2)cc1OC` (centres unmarked), the “hERG current change (%, negative = inhibition) at 10uM” value is on record as -3.67%.

As for `C/C(=N\NC(=S)NCc1ccccc1)c1ccc2ccccc2c1`, the “hERG current change (%, negative = inhibition) at 10uM” value is 15.9%.
